According to article PMC7819943, “Rice protein-binding microarrays: a tool to detect cis-acting elements near promoter regions in rice”:
The other results are listed elsewhere or left out.

biological target: T1, OsWOX13 (Oryza sativa, UniProt Q5QMM3 1-267); assay: protein-binding microarray (RPBM); PBS, 2% BSA, 51.3 ng/ul salmon testes DNA, 50 uM zinc acetate, 200 nM TF, 25 C, 1 h; high values mean tight binding; details: protein: recombinant; tags: N-terminal polyhistidine and DsRed monomer fusion (pET32a); label: CyDye5-dUTP incorporated in the synthesized complementary strand; 3' TTTTT single-stranded linker to array surface; dsDNA, one strand shown
T1 sequence: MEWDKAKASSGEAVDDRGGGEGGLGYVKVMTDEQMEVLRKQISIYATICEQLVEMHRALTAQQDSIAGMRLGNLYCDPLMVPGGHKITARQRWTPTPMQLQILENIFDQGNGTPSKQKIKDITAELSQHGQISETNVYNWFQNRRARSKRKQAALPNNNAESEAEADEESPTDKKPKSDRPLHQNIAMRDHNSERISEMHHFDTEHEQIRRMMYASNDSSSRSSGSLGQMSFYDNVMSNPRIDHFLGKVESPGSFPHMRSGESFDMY
How it was run: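 Ni–NTA purification followed expression in E. coli BL21-CodonPlus of transcription factors fused N-terminally to a polyhistidine tag and DsRed. At 200 nM in PBS with 2% BSA, salmon testes DNA and 50 µM zinc acetate, the protein was incubated for 1 h at 25 °C with a custom Agilent array that had been primer-extended with Cy5-dUTP and blocked with 2% BSA. After washing, the array was read on an Axon 4000B scanner. The binding signal is per-feature fluorescence intensity in arbitrary units.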

Sequence | binding signal
GACCATGATTAGCCATAAGTGCTACAGTAACCCACGTGTGCGGAGTCACCTAGTGCAG | 32200 fluorescence intensity (a.u.)
GTCTAGATTATTAGTACGAATATATCACATCCGGTTTTAGCGGAGTCACCTAGTGCAG | 7510 fluorescence intensity (a.u.)
CTGACTGGCTCTGATTAATTAATTGATGATCGATCGAGCGCGGAGTCACCTAGTGCAG | 49800 fluorescence intensity (a.u.)
AAATGGGAGAATGTTATGATTGGTTGAGAAGTGGAGGTAGCGGAGTCACCTAGTGCAG | 3540 fluorescence intensity (a.u.)
CTCAATTAATTGTGCTCATTGCATTATTCTTGTTAGACAGCGGAGTCACCTAGTGCAG | 35600 fluorescence intensity (a.u.)
CACCCCGTTGATTATGAAATTTTGTGTCAATGCTCTATGACGGAGTCACCTAGTGCAG | 28400 fluorescence intensity (a.u.)
ACTGAATGATGTCGACACCTGAATGTTTAACAATTGCTAGCGGAGTCACCTAGTGCAG | 8650 fluorescence intensity (a.u.)
TCAAATTTCGATATGATAGATTAAATGTGTTGTTGCCAAACGGAGTCACCTAGTGCAG | 9350 fluorescence intensity (a.u.)
CTGATTACACGAAATACGCATACATGCACACCATGCTCACCGGAGTCACCTAGTGCAG | 7300 fluorescence intensity (a.u.)
TTAATTGCATGAAAATATGTTAGAGCATCTCCAAGAGGTACGGAGTCACCTAGTGCAG | 7380 fluorescence intensity (a.u.)
CTCCCAATTAATATCAATCCAAATACATTACTTACATTGTCGGAGTCACCTAGTGCAG | 36100 fluorescence intensity (a.u.)
ATTTAAATAAAACTAATTGCACAGTTAGAGGGGAAATCGCCGGAGTCACCTAGTGCAG | 19100 fluorescence intensity (a.u.)
CTTGATGATTAATCAATTCAATCTTGGCTGTCATGAGAGGCGGAGTCACCTAGTGCAG | 62000 fluorescence intensity (a.u.)
CAAGAAATTATTAAGTAATTTTCATACTTATCATGTTCACCGGAGTCACCTAGTGCAG | 10400 fluorescence intensity (a.u.)
AAAGATTTGTCTCGCAAATTGGTCGCAATCTATGCAATTACGGAGTCACCTAGTGCAG | 5100 fluorescence intensity (a.u.)
GAGAATCAATCATGCGGTTTCTGCACTAGCATGTTACTCCCGGAGTCACCTAGTGCAG | 19000 fluorescence intensity (a.u.)
ATGTAATGATTGTTTCACCTTAATAGGGAAATTGTTATCCCGGAGTCACCTAGTGCAG | 47400 fluorescence intensity (a.u.)
AATACTTATTAATAATTAACATGTGTTAATTCATTGCTTCCGGAGTCACCTAGTGCAG | 13400 fluorescence intensity (a.u.)
CATAAATTTTGCATAAACAAATCATATTTACCTTCTAAAACGGAGTCACCTAGTGCAG | 11000 fluorescence intensity (a.u.)
TTGGGTGGCAATTATTAATCAGTCATGTCATTCAACTAGACGGAGTCACCTAGTGCAG | 11700 fluorescence intensity (a.u.)
TATAAATAGGCTATTAGATTAGCTATAGATGGTTTAGAGCCGGAGTCACCTAGTGCAG | 23000 fluorescence intensity (a.u.)
AGTAATTAAATTCATTCAACTCTCGTTCTCCCATATATTGCGGAGTCACCTAGTGCAG | 30800 fluorescence intensity (a.u.)
CATAATCTGATGTGTTATTATTGATCTATGTAGAGGACACCGGAGTCACCTAGTGCAG | 8240 fluorescence intensity (a.u.)
